The campaign covered roughly 350,000 compounds. About 9,900 (2.8%) were called active. Inconclusive results, whose numbers are uncertain, are shown with a selection of clear calls. The call rests on the fitted dose curve; in most records, active means well fitted activation curve with a large enough effect; inconclusive means small, poorly fitted or top-dose-only effect; inactive means no such curve, though single readings can be large or run the other way. No potency is given beside an inconclusive call; the fits are too rough.
Assay: A quantitative high throughput screen for small molecules that induce DNA re-replication in MCF 10a normal breast cells. Further: nearly all actives have a fitted effect of over 50% in size. On activity, positive = re-replication: % of control where 0% means no effect.
Conditions: MCF 10A DNA re-replication, Hoechst nuclear intensity, 48 h; activity, positive = re-replication: at 46.1 µM (top of the series)
Potency means the concentration at half of the fitted maximal effect; tags describe the fitted curve by direction and shape.

Row | SMILES | activity, positive = re-replication | Potency
1 | Cc1ccc(S(=O)(=O)NCCC(=O)N2CCN(Cc3ccccc3)CC2)cc1 | inactive: -4.29% | –
2 | C[C@H](CO)N1C[C@H](C)[C@H](CN(C)Cc2ccncc2)Oc2ccc(NC(=O)Nc3ccc(C(F)(F)F)cc3)cc2CC1=O | – | inconclusive [activator, partial curve, poor fit]
3 | CCc1cc(C(=O)N2CCc3c([nH]c4ccccc34)C2c2ccc(OC)cc2F)no1 (stereo not drawn) | – | inconclusive [activator, single point]
4 | CN(Cc1nc(CC2CC2)no1)CC12CC3CC(CC(C3)C1)C2 | – | inconclusive [activator, partial curve, poor fit]
5 | O=C1OC[C@H](Cc2ccc3c(c2)OCO3)/C1=C\c1ccc2c(c1)OCO2 | inactive: -5.56% | –
6 | CCCC1=[N+](CC(=O)c2ccc(C)cc2)CCn2cccc21 | – | inconclusive [activator, full curve, poor fit]
7 | O=S(=O)(c1ccc(Br)s1)N1CCN(Cc2ccc3c(c2)OCO3)CC1 | – | inconclusive [activator, partial curve, poor fit]
8 | COc1ccc(-n2c(SCC(=O)Nc3cccc(C(=O)O)c3)nnc2-c2ccco2)cc1 | inactive: -7.28% | –
9 | CNC(=S)N(C)/N=C1/C(=O)N(Cc2c(Cl)cccc2Cl)c2ccccc21 | – | active: 18.4 µM
10 | CN1CCN(c2ccc([N+](=O)[O-])cc2S(=O)(=O)N2CCOCC2)CC1 | inactive: 1.67% | –
11 | Fc1ccc(/C=C\c2nccc3c2[nH]c2ccccc23)cc1 | – | active: 6.51 µM
12 | Cc1cnc(NC(=O)c2nn(C)cc2[N+](=O)[O-])s1 | – | active: 4.11 µM
13 | Cc1csc(SCC(=O)Nc2cc(S(=O)(=O)N(C)C)ccc2C)n1 | inactive: -17.7% | –
14 | COc1ccc2[nH]c3c(=O)n(Cc4ccc(C(=O)N5CCCC5)cc4)c(=S)[nH]c3c2c1 | – | inconclusive [activator, single point]
15 | O=C(C[C@@H]1C/C=C\C[C@@H](NC(=O)OCC2c3ccccc3-c3ccccc32)C(=O)OCCNC1=O)N[C@@H](CO)Cc1ccccc1 | inactive: 2.88% | –
16 | O=C1Nc2c(Br)cccc2C1=O | – | inconclusive [activator, single point]
17 | Cc1cccc(-c2onc3ccc(C(=O)/C=C/N(C)C)cc23)c1 | – | inconclusive [activator, single point]
18 | CCC(C)NC(=O)C1CCCN(C(=O)Nc2ccc(F)cc2)C1 (stereo not drawn) | inactive: 12.1% | –
19 | COc1ccccc1NC(=O)CSc1nc(O)cc(=O)n1-c1ccccc1OC | – | active: 14.6 µM
20 | O=C(CN1C(=O)NC2(CCCCC2)C1=O)N1CCN(S(=O)(=O)c2ccc(Cl)s2)CC1 | inactive: 1.61% | –
21 | Cn1cc(CN2CCCC(C(=O)c3nccn3C)C2)c(-c2cccc(Cl)c2)n1 (stereo not drawn) | – | inconclusive [activator, partial curve]
22 | Cc1ccc(C)c(OCC(=O)Nc2cc(NC(=O)COc3cc(C)ccc3C)cc(C(=O)O)c2)c1 | – | inconclusive [activator, single point]
23 | COc1ccccc1C(=O)Nc1ccc(C)cc1C(=O)c1ccccc1 | inactive: 12.8% | –
24 | C=CCNC(=O)c1cc2c(C(F)(F)F)nn(C)c2s1 | – | inconclusive [activator, partial curve, poor fit]
25 | CCS(=O)(=O)N1CCC(C(=O)Oc2ccc(Cl)cc2)CC1 | inactive: -0.0075% | –

Row | SMILES | activity, positive = re-replication | Potency
26 | N#C/C(=C(/O)c1ccco1)c1nc2ccccc2s1 | – | inconclusive [activator, partial curve, poor fit]
27 | COc1cc(/C=C(\NC(C)=O)C(=O)NC(C)(C)C)ccc1OC(C)=O | inactive: -11% | –
28 | O=C(Cc1ccccc1F)NNC(=O)c1ccncc1 | inactive: 1.69% | –
29 | CN(C)c1ccc(/C=C/C(=O)c2ccc3c(c2)OCO3)cc1 | – | inconclusive [activator, single point]
30 | O=C(COc1ccccc1)n1nc(-c2ccc(Cl)cc2)nc1NCc1ccco1 | – | inconclusive [activator, single point]
31 | O=C(NNS(=O)(=O)c1ccc(C(F)(F)F)cc1)c1cnn(-c2ccccc2)c1C(F)(F)F | inactive: -0.389% | –
32 | Cc1ccc(N2CCC(N3CCN(C)C(CCO)C3)CC2)cc1 (stereo not drawn) | – | inconclusive [activator, full curve, poor fit]
33 | O=C(CNC(=O)c1ccco1)N/N=C/c1ccc(C(=O)O)cc1 | – | inconclusive [activator, partial curve, poor fit]
34 | CC(C)OCCCNC(=S)N1CCC(C(=O)c2ccc(Cl)cc2)CC1 | – | inconclusive [activator, partial curve]
35 | O=C(CSc1nc2ccc(Cl)cc2[nH]1)c1cccs1 | inactive: 16.4% | –
36 | O=C(Nc1nnc(-c2ccco2)o1)c1ccc2ccccc2c1 | – | inconclusive [activator, single point]
37 | O=C1ON=C(c2ccccc2)/C1=C/c1ccc(O)cc1 | inactive: 20.5% | –
38 | CN(C)CCCn1c2c3ccccc3ccc2c2oc(=O)c3ccccc3c21 | – | active: 3.66 µM
39 | CC(C)c1ccc(N2C(=O)CC(Sc3ncn[nH]3)C2=O)cc1 (stereo not drawn) | – | inconclusive [activator, partial curve, poor fit]
40 | Cc1nnc(NC(=O)CSc2ncnc3scc(-c4ccccc4)c23)s1 | – | inconclusive [activator, partial curve, poor fit]
41 | Cc1cc(/C=c2/sc3nc4ccccc4n3c2=O)c(C)n1-c1ccccn1 | – | inconclusive [activator, partial curve, poor fit]
42 | CCOc1ccc(CCNC(=O)COC(=O)c2nc(Cl)ccc2Cl)cc1OCC | inactive: 0.888% | –
43 | CCOc1ccccc1Nc1nnc(SCc2ccc(C(=O)OC)o2)s1 | – | active: 18.4 µM
44 | CC(C)=CCc1c(-c2ccc(O)cc2O)oc2cc3c(c(O)c2c1=O)C=CC(C)(C)O3 | – | inconclusive [activator, single point]
45 | CC(C)c1nc(CNC(=O)CCc2nnc(-c3ccsc3)o2)cs1 | – | inconclusive [activator, single point]
46 | CC1(OC(=O)C2CCCC2)C(=O)C=C2C=C3CCCCN3C=C2C1=O (stereo not drawn) | inactive: 14.7% | –
47 | C=C(C)c1sc(-c2ccccc2)nc1C | – | inconclusive [activator, full curve, poor fit]
48 | COc1ccc(NC(=O)CN(C)C(=O)C(C)N2C(=O)c3ccccc3C2=O)cc1 (stereo not drawn) | inactive: -2.55% | –
49 | CCc1ccccc1NC(=O)c1cc([N+](=O)[O-])ccc1N1CCOCC1 | – | inconclusive [activator, partial curve, poor fit]
50 | Cc1ccc(C(=O)O)cc1N=Cc1cc(Br)cc(Br)c1O | – | inconclusive [activator, full curve, poor fit]

Row | SMILES | activity, positive = re-replication | Potency
51 | O=C(Nc1nc(-c2ccccc2)c(C(=O)c2ccccc2)s1)c1ccc(S(=O)(=O)N2CCCC2)cc1 | – | inconclusive [activator, full curve, poor fit]
52 | CCc1nc(=O)c(-c2ccccc2)c(C)n1-c1ccccc1 | inactive: 13.7% | –
53 | O=C(COc1cccc(C(F)(F)F)c1)NCC(c1ccco1)N1CCCCC1 (stereo not drawn) | – | inconclusive [activator, single point]
54 | CC(=O)Nc1ccc(S(=O)(=O)NC2CC(=O)N(c3ccc(C)c(C)c3)C2)cc1 (stereo not drawn) | inactive: -1.1% | –
55 | Cc1ccc(-n2c(Cc3cccn3C)nnc2SCC(=O)Nc2ccc3c(c2)OCO3)cc1 | inactive: 19.2% | –
56 | O=C(COc1ccccc1Cl)Nc1ccc(C(=O)c2ccc(C(=O)O)cc2)cc1 | – | inconclusive [activator, single point]
57 | O=C(NNC(=O)c1sccc1-n1cccc1)c1cccs1 | – | inconclusive [activator, single point]
58 | CCn1cc(C(=O)N2CCCC(C(=O)c3ccc4ccccc4c3)C2)cn1 (stereo not drawn) | inactive: 7.57% | –
59 | CC(=O)c1c(C)nn(CC(O)COc2ccc3c(c2)CCC3)c1C (stereo not drawn) | inactive: -2.08% | –
60 | COC(=O)c1c(N)n(CCCN2CCOCC2)c2nc3ccccc3nc12 | – | inconclusive [activator, single point]
61 | Cc1nc2cc(C(F)(F)F)ccc2n1C | inactive: 7.15% | –
62 | CCc1ccc(/C=N/NC(=O)c2cc(-c3cccc([N+](=O)[O-])c3)n[nH]2)cc1 | – | active: 5.17 µM
63 | COc1ccccc1/C=C1/SC(=S)N(C(C)C(=O)NC2C=CS(=O)(=O)C2)C1=O (stereo not drawn) | inactive: -4.32% | –
64 | COc1ccc(NS(=O)(=O)c2ccc3oc(SC4CCOC4=O)nc3c2)cc1 (stereo not drawn) | – | active: 2.91 µM
65 | COCc1cc(C)nc(SCC[N+](C)(C)CC(=O)c2ccccc2)c1C#N | inactive: -1.24% | –
66 | Cc1ccccc1N(C(=O)c1snc(C(N)=O)c1N)C(C)C(=O)NC1CCCCC1 (stereo not drawn) | – | inconclusive [activator, single point]
67 | O=C(CSc1nnc(-c2ccccc2F)o1)Nc1ccc(N2CCOCC2)cc1 | inactive: -3.46% | –
68 | O=C(CN1c2ccccc2Sc2ccccc21)NNC(=S)Nc1ccc(Cl)cc1Cl | – | inconclusive [activator, partial curve, poor fit]
69 | COc1ccc(/C=C2\CCCC3C2=NN(C(=O)CSc2n[nH]c(N)n2)C3c2ccc(OC)cc2)cc1 (stereo not drawn) | – | inconclusive [activator, partial curve, poor fit]
70 | Cc1cccc(OCC(=O)N2CCN(C(=O)COc3ccc(Cl)cc3)CC2)c1 | inactive: 4.96% | –
71 | N#Cc1c(N)n(-c2cccc(C(=O)O)c2)c2nc3ccccc3nc12 | – | active: 20.6 µM
72 | CSc1ccccc1NC(=O)CN(C)CC(=O)c1c(C)[nH]c2ccccc12 | inactive: 3.07% | –
73 | Cc1noc(/C=C/N(C)C)c1S(=O)(=O)N1CCCC(C(=O)NC2CCCCC2C)C1 (stereo not drawn) | – | inconclusive [activator, single point]
